In all, about 110,000 compounds were measured (“z-score”: median about -0.1, highest 2% from about 2 on). The list shows a part of the results. Calls of active or inactive are those of the source.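 How the source made its calls: active means z-score in the third read window above 3 or below -3; inactive means the rest.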

The assay addresses Metabotropic glutamate receptor 8 (Rattus norvegicus) (UniProt P70579). Kind of assay: rat mGluR8 modulators via GIRK flux, primary screen, cell-based, thallium flux, HTS (AID 488969). The following applies: HEK293 rat mGluR8, GIRK (G protein-gated inwardly rectifying potassium channel) thallium flux, FluoZin2; at 10 µM; stronger effect = higher value; submaximal glutamate (EC20) added with thallium.
UniProt P70579, sequence (P70579 whole entry, looked up): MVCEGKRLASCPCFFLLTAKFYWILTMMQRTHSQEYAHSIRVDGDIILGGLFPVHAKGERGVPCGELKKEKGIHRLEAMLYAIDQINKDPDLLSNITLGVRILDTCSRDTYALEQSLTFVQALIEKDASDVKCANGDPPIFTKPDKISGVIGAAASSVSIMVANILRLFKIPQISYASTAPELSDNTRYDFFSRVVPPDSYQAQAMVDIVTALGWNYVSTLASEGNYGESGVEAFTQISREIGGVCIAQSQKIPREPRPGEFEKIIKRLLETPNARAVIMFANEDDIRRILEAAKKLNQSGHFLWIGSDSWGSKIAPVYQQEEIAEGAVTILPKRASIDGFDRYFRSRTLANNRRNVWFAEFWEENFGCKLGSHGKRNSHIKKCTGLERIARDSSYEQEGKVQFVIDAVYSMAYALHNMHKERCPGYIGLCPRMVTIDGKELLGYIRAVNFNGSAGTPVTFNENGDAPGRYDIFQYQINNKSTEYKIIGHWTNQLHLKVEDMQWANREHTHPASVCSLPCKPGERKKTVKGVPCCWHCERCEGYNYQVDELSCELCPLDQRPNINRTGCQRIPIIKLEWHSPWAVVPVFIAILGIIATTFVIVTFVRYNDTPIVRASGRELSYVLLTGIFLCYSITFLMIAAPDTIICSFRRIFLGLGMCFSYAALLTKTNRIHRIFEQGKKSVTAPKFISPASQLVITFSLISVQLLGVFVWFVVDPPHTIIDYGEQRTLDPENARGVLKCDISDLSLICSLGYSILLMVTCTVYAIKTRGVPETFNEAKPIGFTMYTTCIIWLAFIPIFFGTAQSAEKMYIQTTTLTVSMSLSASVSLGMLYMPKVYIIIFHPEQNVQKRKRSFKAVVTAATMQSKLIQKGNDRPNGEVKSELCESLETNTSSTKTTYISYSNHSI
As to `CC1CCCC(C)N1C(=O)COC(=O)c1ccc(O)cc1` (centres undefined), the z-score is -0.19.
Then `CCOC(=O)c1cc(C#N)c(Oc2ccc(F)cc2)nc1-c1ccccc1`, with -0.0477; and `CC(/C=N\NC(=O)Cn1c(C)nc2ccccc21)=C\c1ccccc1`, with -0.11.
Then `CCSc1n[nH]c2nc3c(c(=O)n12)C1(CCCC1)Cc1ccccc1-3`, with -0.626.
`Cc1ccc(C(=O)Nn2c(O)c(C=C3N=c4ccccc4=N3)sc2=S)cc1`: the z-score was -0.326.
In turn, `CCCCOC(=O)Nc1nnc(/C=C/c2ccc(OC)cc2)s1` returned a z-score of -0.231.
Then `CCOC(=O)Cn1nnnc1C(C(C)C)N(Cc1cccs1)Cc1cc2cc(C)ccc2[nH]c1=O` (centres undefined), with -0.36.
The compound `Cc1noc(NS(=O)(=O)c2ccc(NC(=O)COc3ccccc3)cc2)c1C` returned a z-score of 0.309.
`COC(=O)/C=C1\SC(=Nc2ccccc2)NC1=O` gave a z-score of -0.171.
Take `Clc1ccccc1-c1nnc2sc(CCc3ccccc3)nn12`: the z-score is active: -5.47.
`CCOc1ncccc1C(=O)OCC(=O)Nc1c(C)cccc1C` came in with a z-score of 0.216.
For the compound `COc1cccc(C(=O)Nc2ccc(N(C)C)cc2)c1OC`, the z-score was -0.682.
For the compound `CC(=O)c1ccc(O)c(CO)c1`, the z-score came to 0.0351.
`Cc1cc2c(n1-c1ccc(Br)cc1)CC(C)(C)CC2=O` returned a z-score of -2.23.
Take `O=c1cc(CO)occ1OCc1cccc(C(F)(F)F)c1`: the z-score is 0.0103.
Under `O=C(Nc1ccc(Oc2cccnc2)cc1)c1cccc([N+](=O)[O-])c1` stands -0.409; under `Clc1ccc(-c2ccc(-c3nn4c(-c5ccco5)nnc4s3)o2)cc1`, 0.507; under `Cc1ccc(C2CC(c3ccccc3)=NN2C(=O)CSc2nnc(-c3ccncc3)n2C)o1` (centres undefined), 0.45.
Regarding `COc1ccc(CNC(=O)C2CC(=O)N(c3ccc(OCC(=O)N4CCCCC4)cc3)C2)cc1` (centres undefined), the z-score is 0.0285.
`COC(=O)C1=C(C(=O)OC)C2C(C)=CC(C)=CN2C(C(=O)OC)=C1C(=O)OC` (centres undefined) had a z-score of -0.46.
`O=C(CSc1nnc2c(Cl)cc(C(F)(F)F)cn12)Nc1ccc2c(c1)OCO2` returned a z-score of 0.195.
In the case of `COC(=O)c1sc2ncccc2c1OCc1ccc(Cl)cc1Cl`, the z-score was -0.208.
Then `CCCn1c(C(=O)OC)cc2c1ccn2-c1ccc(F)cc1`, with 0.84; and `Cc1nnc(SCC(=O)N(C(C)C)C(C)C)nc1C`, with 0.0386; and `Cc1ccc(S(=O)(=O)N2C(=S)SCC2(C)C)cc1`, with 0.169.
`CCOC(=O)C1=C(C)Nc2nnnn2C1c1ccc(OC)c(Br)c1` (centres undefined) came in with a z-score of -0.463.
Under `COc1ccc(S(=O)(=O)N2CCC(=O)N2)cc1` stands 0.154.
`Cc1ccc2cc(CCNC(=O)CC(C)C)c(=O)[nH]c2c1` returned a z-score of -1.9.
On to `C=CCn1c(SCc2nc3ccccc3[nH]2)nnc1-c1ccncc1`, for which the z-score was -0.336.
`Cc1ccc(CNC(=O)c2ccccc2CCc2ccccc2)cc1` had a z-score of -0.136.
`O=C(c1ccccc1)c1ccc(OCCCN2CCCC2)cc1` displayed a z-score of -0.0127.
On to `COC(=O)[C@@H](NC(=O)Nc1cccc(OC)c1)C(C)C`, for which the z-score was -0.0386.
Under `COC(=O)c1sccc1NC(=O)COc1ccc(Cl)cc1Cl` stands -0.26; under `Cc1ccc(S(=O)(=O)N/N=C2/CC(c3ccccc3)Oc3ccccc32)cc1` (centres undefined), -0.121.
As for `CC(C)(C)c1ccc(NC(=O)NCc2ccco2)cc1`, the z-score was -0.0767.
As for `CCCCNC(=S)N/N=C/c1cc(C)ccc1C`, the z-score stood at 1.48.
On to `CCC(CC)C(=O)Nc1ccccc1NC(C)=O`, for which the z-score was 0.239.
Compound `Cc1cccc(-c2nc(CSCC(=O)NCCCN3CCOCC3)c(C)o2)c1` registered a z-score of -0.0671.
Take `CCOCCCNC(=O)C(NC(=O)C1CCC(=O)N1)c1ccc(C)cc1` (centres undefined): the z-score was -0.137.
In turn, `COc1ccc(Cl)cc1NC(=O)NC1CCCCC1` displayed a z-score of -0.411.
Then `Cc1cc(=O)n2[nH]c(-c3ccco3)nc2n1`, with -0.387.
As to `Cc1cc2ccccc2c(=O)n1CC(=O)NC1CCCCCC1`, the z-score came out at 0.246.
In the case of `CCOC(=O)c1c(C)c(C(=O)Nc2ccc3c(c2)OCCO3)c(C)n1CC`, the z-score was -1.49.
For `CC1CN=C(N(Cc2ccccc2)C(=O)Nc2ccccc2)S1` (centres undefined), the z-score was -0.882.
Take `CC(=O)c1ccc(S(=O)(=O)N2CCCC2)cc1`: the z-score was 0.379.
`COc1cc2c(cc1OC)C(c1ccccc1)N(C(=O)c1ccco1)CC2` (centres undefined): the z-score was -1.99.
The compound `Cc1nc2c(sc3nc4c(cc32)COC(C)(C)C4)c(=O)o1` registered a z-score of 0.53.
As to `O=C(O)c1cccc(OCc2ccccc2Cl)c1`, the z-score amounted to 0.74.
Under `O=C(CCC1COc2ccccc2O1)Nc1ccc(Cl)cn1` (centres undefined) stands -0.27.
Take `CCOc1cc(NC(=S)NCC2CCCO2)c(OCC)cc1NC(=O)c1cccc(C)c1` (centres undefined): the z-score is -0.0401.
The compound `CCCOc1ccc(C(=O)NNC(=S)NC(=O)c2cc(-c3ccccc3)nc3ccccc23)cc1` yielded a z-score of 0.558.
In turn, `Clc1ccccc1COc1ccccc1-c1nnco1` yielded a z-score of -1.
As for `CCN(CC)S(=O)(=O)c1ccc(Cl)c(NC(=O)c2ccccc2C)c1`, the z-score is -0.107.
As to `O=C(CSc1ccc(-c2ccccc2)nn1)N1CCOCC1`, the z-score amounted to 0.106.
`O=C(CSc1nnc(-c2cccs2)n1-c1ccccc1)NCc1ccc2c(c1)OCO2` showed a z-score of -0.377.
Regarding `COc1ccc(-c2onc(C)c2-c2ccc(C(=O)OC(C)C)o2)c(O)c1`, the z-score is active: -4.3.
Consider `COc1ccccc1N1CCN(CC(=O)NC(=O)NCc2ccco2)CC1`, for which the z-score came out at 1.67.
Regarding `Cc1ccccc1Cn1ccc(NC(=O)c2cnn3cccnc23)n1`, the z-score was -1.02.
The compound `CCc1ccc(-c2nc(CN3CCC(C(=O)NCCN(CC)c4ccccc4)CC3)c(C)o2)cc1` registered a z-score of 1.17.
Compound `Cc1c(Cl)cccc1NC(=O)COC(=O)c1c2c(nc3ccccc13)CCN(Cc1ccccc1)C2` gave a z-score of -1.03.
As to `COC(=O)[C@H](C)NC(=O)/C=C/c1ccc(OC)cc1`, the z-score was 0.129.
In turn, `O=C1CC(N2CCN(c3ccccc3F)CC2)C(=O)N1c1ccc(F)cc1` (centres undefined) came in with a z-score of 0.198.
In turn, `CCc1ccccc1S(=O)(=O)Cc1ccc(C(=O)N2CCN(c3ccccc3OC)CC2)o1` came in with a z-score of -0.462.
Take `O=C(NC(=S)NC1CCSC1=O)c1ccccc1Cl` (centres undefined): the z-score was found to be 0.0329.
In the case of `Nc1nc(CSC(=S)N2CCN(c3ccccc3)CC2)nc(Nc2ccccc2)n1`, the z-score is 0.00399.
Under `O=C(O)c1cccnc1Cl` stands -0.204; under `O=C(CSc1ccccc1)Nc1nnc(/C=C/c2ccccc2)s1`, -0.187.
For the compound `CC(=O)c1c[nH]c(C(=O)NCC2CCCO2)c1` (centres undefined), the z-score is -0.362.
In the case of `CCCCCC(=O)N1CCN(CCN=CC2=C(O)CC(c3cccs3)CC2=O)CC1` (centres undefined), the z-score is -0.103.
For `Cc1cc(N)c(C)c([N+](=O)[O-])c1C`, the z-score was 0.188.
Regarding `Cc1cccc(NC(=O)c2ccccc2C(=O)O)c1`, the z-score is -0.0763.
`CCOc1cc(/C=N/NC(=O)COc2ccccc2C)ccc1OC(=O)c1cccs1` returned a z-score of -0.207.
`COc1ccc(-c2n[nH]c(C)c2-c2cnn(-c3ccccc3)c2)c(O)c1C` had a z-score of -0.0489.
Under `Cn1cccc1/C=N/n1c(-c2ccc(Cl)cc2)n[nH]c1=S` stands 1.03; under `CCCCn1c(SCC(N)=O)nc2c(sc3ccccc32)c1=O`, active: 3.23; under `CCOC(=O)Nc1sc2c(c1C#N)CCC(C)C2` (centres undefined), -0.505.
Regarding `O=C(Nc1ccccc1-c1nc2ccccc2s1)c1cccnc1`, the z-score is -1.51.
The compound `O=C(CCS(=O)(=O)c1ccc(Br)s1)NCc1ccccc1` had a z-score of -0.807.
Take `Cn1c(=O)[nH]c(=O)c2[nH]c(CN3CCN(C(=O)c4ccco4)CC3)nc21`: the z-score was 0.0365.
`Cc1ccc(OCC(=O)Nc2ccc([N+](=O)[O-])cn2)cc1C` came in with a z-score of -0.203.
`CCOC(=O)COc1ccc2c3c(c(=O)oc2c1C)CCC3` registered a z-score of -0.198.
Under `O=C(/C=C/Nc1ccccc1)c1ccccc1` stands 0.219.
Then `COc1cccc(NC(=O)N2CCN(c3cccc(C)c3C)CC2)c1`, with -0.0248; and `COc1ccccc1N=Cc1nc(-c2ccccc2)oc1OC(C)=O`, with -2.34.
Compound `Cc1cc(C(=O)NNC(=S)NCC(C)C)cs1` registered a z-score of 0.377.
Compound `COc1ccc(C(C)=O)cc1COC(=O)CNC(=O)c1cc(C)cc(C)c1` showed a z-score of 0.033.
Consider `COc1ccc(C2OC(=O)CC2C(=O)N2CCN(c3cc(Cl)ccc3C)CC2)cc1OC` (centres undefined), for which the z-score is -0.388.
Take `CC1N(O)C(C)(C)C(c2ccccc2)=[N+]1[O-]` (centres undefined): the z-score was -0.0396.
Compound `CS(=O)(=O)NCCSCc1c(F)cccc1Cl` registered a z-score of 0.311.
In turn, `COc1ccc(C(=O)N2c3ccccc3C=CC2C#N)cc1` (centres undefined) came in with a z-score of -0.62.
`FC(F)(F)c1cccc(-c2nnc(-c3ccccc3)c(N3CCOCC3)n2)c1` gave a z-score of 0.255.
Under `COC(=O)C1=CN(CCCN2CCCC2=O)C=C(C(=O)OC)C1c1cccs1` stands -0.0492; under `CCn1cc(C(=O)OCC(=O)Nc2cccc(S(=O)(=O)N3CCOCC3)c2)c(=O)c2ccc(C)nc21`, 0.288.
`Cn1cnnc1SC1c2cccc3cccc(c23)C1NS(=O)(=O)c1ccccc1` (centres undefined) displayed a z-score of -0.0157.
`COc1cc(CN(C(=S)NCC(=O)NC2CCCC2)C2CCCC2)cc(OC)c1OC` displayed a z-score of -0.312.
Under `Cc1ccccc1/C(N)=N/O` stands 0.264; under `Cc1ccc(Nc2cc(C)nc(NCc3ccccc3)n2)cc1`, -0.326; under `Oc1ccc(NCc2ccccc2OCc2ccccc2)cc1`, -0.381.
As for `CC1CCN(S(=O)(=O)c2cc(C(=O)N3CCN(c4ncccn4)CC3)ccc2Br)CC1`, the z-score was -0.827.
The compound `O=C(COC(=O)c1cc(S(=O)(=O)N2CCOCC2)ccc1O)NCC1CCCO1` (centres undefined) returned a z-score of -0.227.
With `Cn1cccc1/C=N/N1CCN(c2ccccn2)CC1`, the z-score is -0.18.
In the case of `CCc1c(C(=O)Nc2cc(C)cc(C)c2)[nH]c(C)c1C(C)=O`, the z-score is -0.0314.
Compound `COc1ccc(-n2nnc3c(=O)n(CC(=O)NCC4CCCO4)cnc32)cc1` (centres undefined) had a z-score of -0.0531.
Under `Cc1nnc(SCC(=O)Nc2ccc3c4c(cccc24)CC3)n1C` stands 0.0857; under `COc1ccc(NC(=O)c2ccc(Cc3ccc(C)cc3)o2)cc1`, -1.25; under `CCCCN(C(=O)Cc1cccs1)c1nnc(-c2cccnc2)s1`, 1.24.
Under `COc1ccc(-c2cc(C3CCN(c4cc(Cl)nc(N)n4)CC3)[nH]n2)cc1` stands -0.176.
`CCN1CCc2c(OCC(=O)N3N=C(c4cccs4)CC3c3ccc(F)cc3)cccc2C1=O` (centres undefined) yielded a z-score of -0.882.
`Cc1cnc(NC(=O)CSc2ncc(-c3ccccc3)n2Cc2ccco2)s1` came in with a z-score of 0.413.
The compound `O=C(NNC(=S)Nc1cccc(Cl)c1)c1ccccc1OC(F)F` yielded a z-score of 1.37.
`CCOC(=O)C1=C(SCC)c2cc3c(n2C1=O)CCCC3` showed a z-score of -1.93.
`CCCCN(C)C(=O)CSc1nc(NCc2ccc(OC)cc2)c2ccccc2n1` had a z-score of -1.19.
For the compound `CC(C)CCNC(=O)Cn1c2c(c(-c3ccccc3Cl)cc1=O)CCC2`, the z-score was -0.0568.
Compound `CC(O)(CS(=O)(=O)Cc1ccccc1)C(=O)Nc1ccc(C(F)(F)F)cc1` (centres undefined) had a z-score of -0.407.
